Test results reported in PubChem BioAssay AID504333 (National Center for Advancing Translational Sciences (NCATS), 2011).
Screen size: about 360,000 compounds; about 16,000 (4.4%) were called active. The shares of active, inactive and inconclusive entries below differ from those in the screen. The call rests on the fitted dose curve; in most records, active means well fitted inhibition curve with a large enough effect; inconclusive means small, poorly fitted or top-dose-only effect; inactive means no such curve, though single readings can be large or run the other way. A potency beside an inconclusive call is a rough fit, not a confirmed value.
Further: nearly all actives have a fitted effect of over 60% in size.
Potency means the concentration at half of the fitted maximal effect; tags describe the fitted curve by direction and shape.

Each compound was assayed against Bromodomain adjacent to zinc finger domain protein 2B (Homo sapiens) (UniProt Q9UIF8) (assay: qHTS Assay for Inhibitors of BAZ2B). Settings: AlphaScreen BAZ2B-H3K14Ac peptide displacement; series mostly up to 114 µM.
Sequence of UniProt Q9UIF8 (Q9UIF8 whole entry, looked up, the tested form may be a part): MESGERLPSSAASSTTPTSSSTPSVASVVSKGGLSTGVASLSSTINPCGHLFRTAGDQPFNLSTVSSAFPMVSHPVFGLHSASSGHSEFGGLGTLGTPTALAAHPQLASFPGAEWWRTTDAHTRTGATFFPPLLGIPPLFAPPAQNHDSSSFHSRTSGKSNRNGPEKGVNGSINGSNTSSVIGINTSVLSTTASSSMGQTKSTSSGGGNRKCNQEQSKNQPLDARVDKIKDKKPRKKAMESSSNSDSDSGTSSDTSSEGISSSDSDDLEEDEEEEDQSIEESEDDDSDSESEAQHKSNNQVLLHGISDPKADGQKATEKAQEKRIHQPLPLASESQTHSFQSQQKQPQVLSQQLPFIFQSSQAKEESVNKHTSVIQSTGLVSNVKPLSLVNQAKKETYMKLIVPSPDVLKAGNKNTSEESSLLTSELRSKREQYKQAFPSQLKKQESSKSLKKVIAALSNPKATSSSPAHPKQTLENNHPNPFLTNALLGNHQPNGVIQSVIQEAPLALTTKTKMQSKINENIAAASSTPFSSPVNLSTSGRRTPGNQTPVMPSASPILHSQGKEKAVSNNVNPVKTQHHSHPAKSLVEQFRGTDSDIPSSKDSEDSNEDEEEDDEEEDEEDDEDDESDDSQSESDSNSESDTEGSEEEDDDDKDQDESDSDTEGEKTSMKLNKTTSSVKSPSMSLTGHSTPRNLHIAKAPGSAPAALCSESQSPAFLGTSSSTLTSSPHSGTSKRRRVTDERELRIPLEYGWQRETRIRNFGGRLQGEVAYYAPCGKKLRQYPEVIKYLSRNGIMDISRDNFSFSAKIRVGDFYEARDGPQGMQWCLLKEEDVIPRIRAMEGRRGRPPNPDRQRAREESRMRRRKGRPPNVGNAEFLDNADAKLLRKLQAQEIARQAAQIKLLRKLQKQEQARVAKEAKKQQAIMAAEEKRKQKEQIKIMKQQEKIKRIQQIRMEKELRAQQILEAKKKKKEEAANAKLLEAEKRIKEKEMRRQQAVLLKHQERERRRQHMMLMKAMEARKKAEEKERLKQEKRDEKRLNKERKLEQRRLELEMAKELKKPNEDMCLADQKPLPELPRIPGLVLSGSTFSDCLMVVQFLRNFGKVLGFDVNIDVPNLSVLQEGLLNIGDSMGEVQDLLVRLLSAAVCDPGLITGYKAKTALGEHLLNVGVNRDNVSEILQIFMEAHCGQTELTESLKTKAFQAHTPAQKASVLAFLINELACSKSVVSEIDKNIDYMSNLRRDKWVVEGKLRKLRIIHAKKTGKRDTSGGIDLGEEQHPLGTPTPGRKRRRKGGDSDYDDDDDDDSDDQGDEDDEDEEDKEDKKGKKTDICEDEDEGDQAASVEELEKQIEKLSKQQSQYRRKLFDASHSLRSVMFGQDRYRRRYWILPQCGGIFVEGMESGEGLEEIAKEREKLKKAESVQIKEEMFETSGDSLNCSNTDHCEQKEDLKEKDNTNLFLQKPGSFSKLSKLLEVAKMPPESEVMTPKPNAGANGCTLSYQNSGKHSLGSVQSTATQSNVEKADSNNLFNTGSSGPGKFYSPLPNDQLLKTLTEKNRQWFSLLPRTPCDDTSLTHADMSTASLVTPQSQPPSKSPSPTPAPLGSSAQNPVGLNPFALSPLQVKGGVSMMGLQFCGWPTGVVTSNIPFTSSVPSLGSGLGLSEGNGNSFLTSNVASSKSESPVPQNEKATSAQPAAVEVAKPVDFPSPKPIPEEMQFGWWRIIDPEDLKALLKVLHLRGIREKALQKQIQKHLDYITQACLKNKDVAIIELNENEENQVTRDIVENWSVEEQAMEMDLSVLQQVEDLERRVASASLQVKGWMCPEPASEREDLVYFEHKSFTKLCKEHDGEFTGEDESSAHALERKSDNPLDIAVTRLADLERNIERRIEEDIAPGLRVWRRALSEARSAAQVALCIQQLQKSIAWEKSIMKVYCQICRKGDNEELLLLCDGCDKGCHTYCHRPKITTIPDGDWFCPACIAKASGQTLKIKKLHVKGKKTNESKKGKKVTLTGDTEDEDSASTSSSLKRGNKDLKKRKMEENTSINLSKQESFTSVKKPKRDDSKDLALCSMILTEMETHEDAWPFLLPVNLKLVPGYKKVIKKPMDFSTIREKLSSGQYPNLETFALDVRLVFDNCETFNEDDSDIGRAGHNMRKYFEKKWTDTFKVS
Procedure, shortened: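 Compounds, titrated to a top concentration of 110 uM, were incubated 30 min at room temperature with preformed BAZ2B/acetyl-K14 H3 peptide complex (50 nM each). Proximity signal was measured by AlphaScreen after 20 min with beads.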
With `CC(=O)c1c(C)n(-c2ccc(N(C)C)cc2)c2ccc(OCC(N)=O)cc12` the Potency was active: 50.1 µM. In the case of `C#CCOCCOCCOCCNc1nc(N2CCN(C(=O)Cn3cc(CCCN=C(N)N)nn3)CC2)nc(N2CCN(C(=O)[C@H]([C@@H](C)CC)n3cc(CCCN=C(N)N)nn3)CC2)n1`, the Potency is reported as inconclusive: 89.1 µM [inhibitor, single point]. With `Cc1ccc(O)c(C(=O)c2cnn(C(=O)COc3ccc(Cl)cc3)c2)c1` the Potency was inconclusive: 89.1 µM [inhibitor, single point]. With `Cc1cc(/C=C(/C#N)C(=O)Nc2ccccc2)c(C)n1-c1cccnc1` the Potency was inconclusive: 79.4 µM [inhibitor, single point]. `Cc1ccc2nc(CCl)[n+]([O-])c(-c3ccccc3)c2c1` was tested, and the Potency was “inactive”. `O=C(Nc1ccc(C2CC2(Cl)Cl)cc1)c1cccc([N+](=O)[O-])c1` (stereo not given) was tested, and the Potency was inconclusive: 20 µM [inhibitor, full curve]. `CC(=O)c1ccc(OCC(O)CN2CCN(c3ccc(F)cc3)CC2)cc1` (stereo not given) was tested, and the Potency was inconclusive: 79.4 µM [inhibitor, single point]. In the case of `CCO[C@H]1OC(C(=O)N2CCOCC2)=C[C@@H](C)[C@@H]1CCCO`, the Potency is reported as “inactive”. `COc1ccc(/C=C(/NC(=O)c2ccc(C)cc2)C(=O)NCc2ccncc2)cc1` was tested, and the Potency was “inactive”. With `C=CC(=O)NCc1ccc(-c2csnn2)cc1` the Potency was inconclusive: 89.1 µM [inhibitor, single point]. For `Cc1ccc(C2C(C#N)=C(N)Oc3n[nH]c(-c4cccs4)c32)s1` (stereo not given), the Potency was inconclusive: 70.8 µM [inhibitor, single point]. With `Cc1ccccc1Nc1c(-c2cccs2)nc2cccc(C)n12` the Potency was inconclusive: 7.94 µM [inhibitor, full curve]. In the case of `CCOc1ccc(/C=C/c2nc(C#N)c(NCCc3ccccc3)o2)cc1`, the Potency is reported as “inactive”. In the case of `Cc1cc([N+](=O)[O-])ccc1NCc1cccc([N+](=O)[O-])c1`, the Potency is reported as inconclusive: 35.5 µM [inhibitor, partial curve]. `Cc1ccc(CSc2ncnc3ccccc23)cc1` was tested, and the Potency was “inactive”. `COc1ccc(N(Cc2cc3ccccc3[nH]c2=O)C(=O)C2CCCO2)cc1` (stereo not given) was tested, and the Potency was inconclusive: 79.4 µM [inhibitor, single point]. For `CN(C)C(CNC(=O)c1cnc(Cl)c(Cl)c1)c1ccccc1` (stereo not given), the Potency was active: 56.2 µM. `Cc1cccc(C(=O)NC(=S)Nc2ccc(Cc3ccncc3)cc2)c1` was tested, and the Potency was inconclusive: 31.6 µM [inhibitor, partial curve]. `Cc1ccc(-c2nnc(Nc3cccc(Cl)c3)c3ccccc23)cc1S(=O)(=O)N1CCN(C)CC1` was tested, and the Potency was inconclusive: 20 µM [inhibitor, full curve]. With `CN(C)CCOC(=O)c1ccc2c(c1)S(=O)(=O)c1ccccc1C2=O` the Potency was “inactive”. For `O=C(NCc1ccc(F)cc1)C1CCCN1S(=O)(=O)c1cccc2nsnc12` (stereo not given), the Potency was inconclusive: 89.1 µM [inhibitor, single point]. `CN(C)NC(=O)c1ccsc1NC(=O)c1ccc(S(=O)(=O)N2CCCC2)cc1` was tested, and the Potency was inconclusive: 79.4 µM [inhibitor, single point]. `N/C(=N\OC(=O)c1ccc([N+](=O)[O-])cc1)c1cccnc1` was tested, and the Potency was “inactive”. In the case of `COc1cc(C2C3=C(CC(c4ccco4)CC3=O)Nc3ccccc3N2C(C)=O)cc(OC)c1OC` (stereo not given), the Potency is reported as inconclusive: 89.1 µM [inhibitor, single point]. `Cc1cc(C)n2nc(S(=O)(=O)NCCc3ccccc3)nc2n1` was tested, and the Potency was inconclusive: 89.1 µM [inhibitor, single point]. With `Cc1ccc2nc(-c3ccc(N4C(=NC(=O)CCC(=O)O)SC5CS(=O)(=O)CC54)cc3)sc2c1` (stereo not given) the Potency was inconclusive: 50.1 µM [inhibitor, partial curve]. `Cc1ccccc1C(=O)Nc1cccc(-c2nnc(SCC(=O)O)n2C)c1` was tested, and the Potency was inconclusive: 100 µM [inhibitor, single point]. For `CCOC(=O)c1sc(=S)n(-c2ccc(Cl)cc2)c1SC`, the Potency was inconclusive: 70.8 µM [inhibitor, single point]. For `N#Cc1cccc(N=c2ssnc2Cl)c1`, the Potency was active: 28.2 µM. In the case of `COc1ccc(CCN(C)CC(=O)Nc2cc(C)nc3ccccc23)cc1OC`, the Potency is reported as active: 22.4 µM. With `CCOc1ccc(NC(=O)Cn2c(=O)oc3cc(Cl)ccc32)cc1` the Potency was “inactive”. For `CCc1ccc(NC(=O)c2cc(-c3ccc(OC)cc3)on2)cc1`, the Potency was active: 56.2 µM. In the case of `Cc1ccc(-c2c3c(=O)n(C)c(=O)n(C)c3c3n2-c2ccccc2NC3c2ccc(C)cc2O)cc1` (stereo not given), the Potency is reported as inconclusive: 89.1 µM [inhibitor, single point]. In the case of `Cc1c(NC(=O)c2c(NC(=O)CNC3CC3)sc3c2CCCC3)c(=O)n(-c2ccccc2)n1C`, the Potency is reported as inconclusive: 17.8 µM [inhibitor, full curve]. With `O=[N+]([O-])c1cc(C=Nc2ccc3ccccc3c2)ccc1Br` the Potency was active: 28.2 µM. `COc1ccc([C@]23Cc4cc(OC)c(OC)cc4C(O2)c2c(cc(C)n(Cc4ccccc4)c2=O)O3)cc1` was tested, and the Potency was active: 11.2 µM. With `CCC(=O)OC1=C(C(C)=O)N(Cc2ccccc2)S(=O)(=O)c2ccccc21` the Potency was “inactive”. `CCOC(=O)c1c(C)n(-c2ccc(C)cc2)c2ccc(OCC(O)CNCC3CCCO3)cc12` (stereo not given) was tested, and the Potency was active: 28.2 µM. With `COc1ccc(CN2CCCCC2C(=O)Nc2ccc(OC)c(OC)c2)cc1OC` (stereo not given) the Potency was “inactive”. For `O=S(=O)(NCc1ccccn1)c1ccc2c(c1)OCCO2`, the Potency was “inactive”. With `CCC(=O)N1CCc2cc(CNC(=O)c3cccc(N(C)C)c3)ccc21` the Potency was inconclusive: 79.4 µM [inhibitor, single point]. With `O=C(N/N=C/c1ccc(Cl)cc1Cl)C1CCN(c2ncc(C(F)(F)F)cc2Cl)CC1` the Potency was inconclusive: 89.1 µM [inhibitor, single point]. With `COc1ccc(Br)cc1/C=N/NC(=O)c1cc(Br)ccc1O` the Potency was active: 56.2 µM. With `CCOc1cccc(CN2CCCC(N3CCc4ccccc4C3)C2)c1O` (stereo not given) the Potency was inconclusive: 56.2 µM [inhibitor, partial curve]. For `COc1ccc(/C=C2\SC(=S)N(CCCC(=O)Nc3ccc(C(=O)O)cc3)C2=O)cc1OC`, the Potency was active: 50.1 µM. In the case of `COc1ccc(N2CCN(C(=O)c3cc4c(=O)n(Cc5ccco5)ccc4nc3C)CC2)cc1`, the Potency is reported as inconclusive: 89.1 µM [inhibitor, single point]. In the case of `Cc1cc(N2C(=O)C(O)=C(C(=O)c3ccco3)C2c2cccc(Cl)c2)no1` (stereo not given), the Potency is reported as inconclusive: 89.1 µM [inhibitor, partial curve]. In the case of `CCOC(=O)c1c(C)[nH]c(C(=O)COC(=O)/C=C/c2cccc(OC)c2OC)c1C`, the Potency is reported as “inactive”. For `CC1CCC/C(=N\NC(=S)Nc2ccccc2)C1` (stereo not given), the Potency was inconclusive: 39.8 µM [inhibitor, partial curve]. In the case of `CC(C)[C@@H](C(=O)NC1CCN(Cc2ccccc2)CC1)N1C(=O)N2CCc3c([nH]c4ccccc34)[C@@]2(C)C1=O`, the Potency is reported as inconclusive: 17.8 µM [inhibitor, partial curve]. With `C/C(CC(=O)Nc1ccccc1-c1ccccc1)=N\NC(=O)COc1ccc(C)cc1Br` the Potency was inconclusive: 89.1 µM [inhibitor, single point]. With `Cc1oc(/C=N/NC(=O)CN(c2ccccc2Br)S(C)(=O)=O)cc1Br` the Potency was inconclusive: 39.8 µM [inhibitor, partial curve]. For `COc1ccccc1CNC(=O)C(=O)NCC(c1ccco1)S(=O)(=O)c1ccc(C)cc1` (stereo not given), the Potency was “inactive”. With `CC(=O)Nc1ccc(-c2csc(NC(C)c3ccccc3)n2)cc1` (stereo not given) the Potency was inconclusive: 89.1 µM [inhibitor, single point]. For `COc1ccc(CNCc2cccc(Cl)c2)cc1`, the Potency was inconclusive: 50.1 µM [inhibitor, partial curve]. For `O=C(NCc1ccccn1)C(C(=O)c1cccc([N+](=O)[O-])c1)n1cc(Cl)ccc1=O` (stereo not given), the Potency was inconclusive: 89.1 µM [inhibitor, single point]. In the case of `CCn1cc(C(=O)NCc2ccncc2)c(=O)c2cc(F)c(N3CCN(C(=O)c4ccco4)CC3)cc21`, the Potency is reported as inconclusive: 89.1 µM [inhibitor, single point]. For `Cc1ccc(C)c(N2CCN(S(=O)(=O)c3c(C(=O)N4CCC(C)CC4)c(C)n(C)c3C)CC2)c1`, the Potency was active: 50.1 µM. In the case of `COc1ccc(-c2cncnc2-c2ccc(OC)cc2O)cc1`, the Potency is reported as inconclusive: 79.4 µM [inhibitor, single point]. In the case of `Cc1ccc(NC(=O)C2CCCN(C(=O)c3ccc(Cl)cc3)C2)cc1C` (stereo not given), the Potency is reported as “inactive”. With `Cc1cc(C)c(C(=O)CSc2nnc(-c3cccnc3)n2C)c(C)c1` the Potency was inconclusive: 2 µM [inhibitor, full curve, poor fit]. In the case of `Cc1sc(NC(=O)c2ccccc2)c(C(c2ccc(Cl)cc2)N2CCN(CCO)CC2)c1C` (stereo not given), the Potency is reported as inconclusive: 44.7 µM [inhibitor, partial curve]. For `COc1ccc(C(=O)N/C(=C/c2ccco2)C(=O)N2CCCCCC2)cc1`, the Potency was inconclusive: 56.2 µM [inhibitor, partial curve]. For `CCN(CCCCCN(C)C)Cc1cc2ccccc2o1`, the Potency was “inactive”. With `Cc1nn(Cc2noc(C(=O)NCc3ccccn3)n2)c(C)c1Br` the Potency was “inactive”. In the case of `Cc1ccc(C2=NN(CCC#N)C(=O)CO2)cc1`, the Potency is reported as “inactive”. In the case of `Cc1cc(/C=C(/C#N)c2nc3ccccc3[nH]2)c(C)n1-c1cccc([N+](=O)[O-])c1`, the Potency is reported as inconclusive: 39.8 µM [inhibitor, single point]. In the case of `O=C(CSc1nnc(Cc2ccccc2)o1)Nc1cccc(F)c1`, the Potency is reported as “inactive”. `O=C(c1ccc(COc2ccc(Br)cc2)o1)N1N=C(C(F)F)CC1(O)C(F)F` (stereo not given) was tested, and the Potency was “inactive”. For `COc1ccnc(CSC(N)=Nc2ccc(F)cc2)c1`, the Potency was active: 50.1 µM.
